{
  "source": "PubChem BioAssay AID1347165",
  "about": "(National Center for Advancing Translational Sciences (NCATS), 2019)",
  "note": "Values joined by “and” are separate entries in the source; they are usually repeats but may differ in a detail not shown here. Equal entries are not always repeated. Among all 220,000 compounds or so, about 5,700 (2.6%) were called active. The inconclusive results got no clear call from the source; some entries with a clear call stand among them for comparison. The call rests on the fitted dose curve; in most records, active means well fitted inhibition curve with a large enough effect; inconclusive means small, poorly fitted or top-dose-only effect; inactive means no such curve, though single readings can be large or run the other way. Where the call is inconclusive, the potency comes from a doubtful curve fit. Potency means the concentration at half of the fitted maximal effect; tags describe the fitted curve by direction and shape.",
  "data": [
    {"target": "Lysine-specific demethylase 5B (Homo sapiens) (UniProt Q9UGL1)", "sequence (Q9UGL1 whole entry, looked up)": "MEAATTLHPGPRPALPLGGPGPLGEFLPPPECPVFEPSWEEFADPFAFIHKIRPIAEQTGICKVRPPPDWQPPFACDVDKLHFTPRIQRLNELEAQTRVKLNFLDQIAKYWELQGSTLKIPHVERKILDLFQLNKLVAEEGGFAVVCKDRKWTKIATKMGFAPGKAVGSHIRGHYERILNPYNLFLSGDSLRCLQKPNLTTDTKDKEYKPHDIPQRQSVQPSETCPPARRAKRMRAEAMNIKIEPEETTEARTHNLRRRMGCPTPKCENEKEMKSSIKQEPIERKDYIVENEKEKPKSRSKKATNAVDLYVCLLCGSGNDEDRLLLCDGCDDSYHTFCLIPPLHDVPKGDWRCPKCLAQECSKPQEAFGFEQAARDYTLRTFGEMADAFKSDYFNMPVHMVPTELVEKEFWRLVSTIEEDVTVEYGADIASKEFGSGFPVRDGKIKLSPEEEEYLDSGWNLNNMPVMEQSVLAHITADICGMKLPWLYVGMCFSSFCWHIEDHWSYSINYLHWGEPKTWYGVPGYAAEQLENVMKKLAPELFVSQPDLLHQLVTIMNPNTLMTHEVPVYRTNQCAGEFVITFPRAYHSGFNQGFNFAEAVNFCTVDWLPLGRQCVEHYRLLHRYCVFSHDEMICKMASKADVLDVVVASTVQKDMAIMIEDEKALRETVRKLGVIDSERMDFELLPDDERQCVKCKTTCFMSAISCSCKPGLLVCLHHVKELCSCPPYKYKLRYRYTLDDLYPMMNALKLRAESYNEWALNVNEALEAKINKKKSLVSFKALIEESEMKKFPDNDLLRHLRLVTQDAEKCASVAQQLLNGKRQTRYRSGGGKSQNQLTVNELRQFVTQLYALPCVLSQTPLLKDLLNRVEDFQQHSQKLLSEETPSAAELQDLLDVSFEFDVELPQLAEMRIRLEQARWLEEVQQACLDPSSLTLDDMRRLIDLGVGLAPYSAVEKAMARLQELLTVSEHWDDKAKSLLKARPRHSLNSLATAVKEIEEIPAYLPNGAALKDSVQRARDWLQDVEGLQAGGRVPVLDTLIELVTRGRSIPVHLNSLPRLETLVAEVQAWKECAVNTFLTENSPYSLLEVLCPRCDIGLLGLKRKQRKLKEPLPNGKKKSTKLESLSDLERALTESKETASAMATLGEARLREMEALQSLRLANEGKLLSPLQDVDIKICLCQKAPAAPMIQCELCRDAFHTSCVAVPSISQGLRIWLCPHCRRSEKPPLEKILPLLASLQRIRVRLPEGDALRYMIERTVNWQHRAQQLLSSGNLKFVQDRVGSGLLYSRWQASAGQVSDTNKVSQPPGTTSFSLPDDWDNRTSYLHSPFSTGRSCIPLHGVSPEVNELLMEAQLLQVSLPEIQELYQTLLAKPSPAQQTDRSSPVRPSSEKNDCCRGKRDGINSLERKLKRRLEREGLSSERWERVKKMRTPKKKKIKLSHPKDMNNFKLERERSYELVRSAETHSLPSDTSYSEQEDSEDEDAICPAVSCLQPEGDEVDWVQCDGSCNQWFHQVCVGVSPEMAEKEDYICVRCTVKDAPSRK", "test": "Primary screen for KDM5B Histone Demethylases FDH-coupled qHTS; further: nearly all actives have a fitted effect of over 70% in size; on activity change, negative = inhibition: 0% is about no effect", "settings": "FDH-coupled NADH fluorescence (FDH is formaldehyde dehydrogenase); activity change, negative = inhibition: at 57.7 µM (top of the series) unless noted", "in_short": "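KDM5BΔAP (200 nM final) in 50 mM HEPES pH 7.5, 0.01% Tween-20 was preincubated 10 min at RT with compound over a concentration range. Substrate mix (H3K4me3 12.5 µM, α-KG 25 µM, Fe²⁺, ascorbate, NAD⁺, FDH) was added, and NADH fluorescence change over 30 min gave dose-response curves.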", "values": [
      {"smiles": "CCOC(=O)c1c(CN(C)C)n(C)c2c(O)c(N=NC(N)=O)c3ccc(Br)cc3c12", "Potency": "inconclusive: 22.4 µM [inhibitor, partial curve, poor fit]"},
      {"smiles": "Cc1coc2c1c(C)cc1oc(=O)c(CC(=O)NCC(=O)O)c(C)c12", "Potency": "inconclusive: 28.2 µM [inhibitor, partial curve, poor fit]"},
      {"smiles": "COc1ccccc1-c1nnc([C@H]2CCN(C3CCN(C)CC3)C2)o1", "Potency": "inconclusive: 35.5 µM [inhibitor, partial curve]"},
      {"smiles": "O=C(NN1C(=O)NC2(CCCCC2)C1=O)c1ccc(-c2ccc([N+](=O)[O-])cc2)o1", "Potency": "inconclusive: 39.8 µM [inhibitor, single point]"},
      {"smiles": "CC(C)NC(=O)N1CCN2C(=O)c3cc(-c4ccccc4F)ccc3NC(=O)[C@H]2C1", "Potency": "inconclusive: 31.6 µM [inhibitor, partial curve, poor fit]"},
      {"smiles": "Fc1ccc(-c2nnc3ccc(NCCc4ccccc4)nn23)nc1", "Potency": "inactive"},
      {"smiles": "COc1ccccc1NC(=O)CSc1nc2c(=O)[nH]cnc2n1-c1ccc(C)cc1", "Potency": "inactive"},
      {"smiles": "CCC(=O)N1CCC2(CC1)c1[nH]c3ccc(OC)cc3c1CCN2C", "Potency": "inconclusive: 25.1 µM [inhibitor, single point]"},
      {"smiles": "O=C(Nc1ccc(I)cc1)c1cc(-c2ccc[nH]2)n[nH]1", "Potency": "inactive"},
      {"smiles": "CC(C)(C)NS(=O)(=O)c1ccccc1-c1cnc2c(C(N)=O)cnn2c1", "Potency": "inconclusive: 39.8 µM [inhibitor, single point]"},
      {"smiles": "O=C(NCCn1cc(SCc2ccc(Br)cc2)c2ccccc21)c1cccs1", "Potency": "inconclusive: 15.8 µM [inhibitor, partial curve, poor fit]"},
      {"smiles": "COc1ccc(-c2cc(N3CCCN(C(=O)Cc4c(F)cccc4Cl)CC3)n[nH]2)cc1", "Potency": "inconclusive: 25.1 µM [inhibitor, partial curve]"},
      {"smiles": "COc1cccc(-c2ccnc3nc(-c4cccs4)nn23)c1", "Potency": "inconclusive: 3.55 µM [inhibitor, partial curve, poor fit]"},
      {"smiles": "CCOc1ccc(CN2CCN(c3nc(C)cc(NC)n3)CC2CCO)cc1", "note": "(stereo unspecified)", "Potency": "inactive"},
      {"smiles": "CC1=C(C(=O)OC(C)C)C(c2ccccc2Cl)N2C(CC(=O)N3CCCC3)=CSC2=N1", "note": "(stereo unspecified)", "Potency": "inconclusive: 35.5 µM [inhibitor, partial curve, poor fit]"},
      {"smiles": "COc1cc(OC)cc(C(=O)N2CCN(c3ncccn3)CC2C(=O)O)c1", "note": "(stereo unspecified)", "Potency": "inconclusive: 28.2 µM [inhibitor, single point]"},
      {"smiles": "Cc1ccccc1C(=O)N1CCN(c2oc(-c3ccccc3F)nc2C#N)CC1", "Potency": "inconclusive: 20 µM [inhibitor, partial curve, poor fit]"},
      {"smiles": "CN1CC(=O)N(C2CCCNC2)Cc2c1ncnc2N1CCC(N2CCOCC2)CC1", "note": "(stereo unspecified)", "Potency": "inconclusive: 50.1 µM [inhibitor, partial curve, poor fit]"},
      {"smiles": "CN1CCC2(C1)CN(Cc1ccccc1)c1ccc(C(=O)NCCc3ccccn3)cc12", "note": "(stereo unspecified)", "Potency": "inconclusive: 35.5 µM [inhibitor, partial curve, poor fit]"},
      {"smiles": "COc1ccccc1C(=O)NC1CCC(C)CC1", "note": "(stereo unspecified)", "Potency": "inactive"},
      {"smiles": "CC(C)CN(C(=O)CN1c2ccccc2CC1C)c1c(N)n(Cc2ccccc2)c(=O)[nH]c1=O", "note": "(stereo unspecified)", "Potency": "inconclusive: 28.2 µM [inhibitor, partial curve, poor fit]"},
      {"smiles": "Cn1c(=O)c2c(-c3ccc(Br)cc3)n(Cc3ccc(F)cc3)cc2n(C)c1=O", "Potency": "inconclusive: 7.08 µM [inhibitor, partial curve, poor fit] and inconclusive: 14.1 µM [inhibitor, partial curve, poor fit]"},
      {"smiles": "COCCNC(=O)CN(C)C(=O)c1cc(-c2ccc(Cl)cc2)nc2ccccc12", "Potency": "inactive"},
      {"smiles": "COc1cccc(C(=O)Nc2cccc(-c3nc4ncccn4c3C)c2)c1", "Potency": "inconclusive: 31.6 µM [inhibitor, partial curve, poor fit]"},
      {"smiles": "CN1C(=O)c2cccn2CC1CNC(=O)Nc1ccccc1", "note": "(stereo unspecified)", "Potency": "inactive"},
      {"smiles": "O=C(O)c1c(-c2ccccc2)oc2ccc(OCc3c(F)cccc3Cl)cc12", "Potency": "inconclusive: 31.6 µM [inhibitor, partial curve, poor fit]"},
      {"smiles": "CC(C)c1ccc(N2C(=O)N[C@@H]3CCN(C(=O)CC4(CC(=O)O)CCCC4)[C@@H]3C2=O)cc1", "Potency": "inactive"},
      {"smiles": "COc1ccc(C(=O)NC2CCN(c3cc(C(F)(F)F)ncn3)CC2)cc1", "Potency": "inactive"},
      {"smiles": "C=CCOC(=O)C1=C(C)NC(SCC(N)=O)=C(C#N)C1c1ccc(C)cc1", "note": "(stereo unspecified)", "Potency": "inconclusive: 28.2 µM [inhibitor, single point]"},
      {"smiles": "Cc1ccc(-c2cc(N3CCCN(C(=O)c4cccn4C)CC3)n[nH]2)cc1C", "Potency": "inconclusive: 10 µM [inhibitor, partial curve, poor fit]"},
      {"smiles": "Cc1oc(-c2ccccc2)nc1C(=O)OCC(=O)NC(N)=O", "Potency": "inactive"},
      {"smiles": "CCOc1ccc(CCNC(=O)CCCc2nnc3n(CC)c(=O)c4sccc4n23)cc1", "activity change, negative = inhibition": "inconclusive: -31.4% [inhibitor]"},
      {"smiles": "N#Cc1ccc(N2CCN(C(=O)CCc3ccncc3)CC2=O)cc1", "Potency": "inactive"},
      {"smiles": "CCNc1nc(-c2ccc(S(=O)(=O)N3CCCC3)cc2)cs1", "Potency": "inconclusive: 39.8 µM [inhibitor, partial curve, poor fit]"},
      {"smiles": "COc1cc2oc(=O)c(CC(=O)NC3CC3)c(C)c2cc1Cl", "Potency": "inactive"},
      {"smiles": "COc1ccc(CCNC(=O)C2CCN(c3nc4ccc(Cl)cc4[nH]3)CC2)cc1OC", "Potency": "inactive"},
      {"smiles": "COc1ccc(C)cc1-n1cnc2cc(C(=O)NC3CCCCCC3)ccc21", "Potency": "inconclusive: 25.1 µM [inhibitor, single point]"},
      {"smiles": "Cc1ccc(C(=O)c2oc3ccccc3c2NC(=O)Cc2coc3ccc(C)cc23)cc1", "Potency": "inactive"},
      {"smiles": "CCOC(=O)c1c(C)[nH]c(C)c1S(=O)(=O)N(C)CC(=O)NCc1ccc(Cl)cc1", "activity change, negative = inhibition": "inconclusive: -44.9% [inhibitor]"},
      {"smiles": "O=C(O)c1ccc2nc(-c3cc4cc(Cl)ccc4oc3=O)[nH]c2c1", "Potency": "inconclusive: 25.1 µM [inhibitor, partial curve, poor fit]"},
      {"smiles": "COc1ccc2cc(CN3CCNC(=O)C3C)c(-c3cccs3)nc2c1", "note": "(stereo unspecified)", "Potency": "inconclusive: 22.4 µM [inhibitor, partial curve, poor fit]"}
    ]}
  ]
}
